According to US20220402985A1:
Substitutions are numbered along the chain they refer to. Numbers in names are those of the source. Where “and” joins values, the source holds several entries; their conditions need not be identical. Equal entries are not always repeated.

B1: huNRG1(S177-F229)(NRGE1C)(NRGmod)::G4::huFcSEFL2 (Pb) (Fc fusion)
chain: SHLVKCGEKHKSFCVNGGECFMIEGPSNPSRYLCKCPNEFTGDRCQEDFMASFAAAEELYQGGGG[letters of human IgG1 Fc with R292C N297G V302C (EU numbers) not shown]
B2: huNRG1(S177-F229)(NRGE1D)(NRGmod)::G4::huFcSEFL2 (Pb) (Fc fusion)
chain: B1 chain with K9S, F21Y, I23V, P26S, N28I
B3: huNRG1(S177-S228)(3H8)::3x(G4Q)::huFcSEFL2 (Pb) (Fc fusion)
chain: SHLVKCGEKHKSFCVNGGECYMVEGSSIPSRYLCKCPNEFTGDRCQEDFMASGGGGQGGGGQGGGGQ[letters of human IgG1 Fc with changes not shown]
B4: huNRG1(S177-S228)(NRGE1D)::3x(G4Q)::huFcSEFL2 (Pb) (Fc fusion)
chain: SHLVKCGESHKSFCVNGGECYMVEGSSIPSRYLCKCPNEFTGDRCQEDFMASGGGGQGGGGQGGGGQ[letters of human IgG1 Fc with changes not shown]
B5: huNRG1(S177-Q237)(3H8)::3x(G4Q)::huFcSEFL2 (Pb) (Fc fusion)
chain: SHLVKCGEKHKSFCVNGGECYMVEGSSIPSRYLCKCPNEFTGDRCQEDFMASFYKAEELYQGGGGQGGGGQGGGGQ[letters of human IgG1 Fc with changes not shown]
B6: huNRG1(S177-Q237)(NRGE1D)::3x(G4Q)::huFcSEFL2 (Pb) (Fc fusion)
chain: SHLVKCGESHKSFCVNGGECYMVEGSSIPSRYLCKCPNEFTGDRCQEDFMASFYKAEELYQGGGGQGGGGQGGGGQ[letters of human IgG1 Fc with changes not shown]
B7: huNRG1(S177-F229)(NRGE1C): (G4A)2:G4::huFcSEFL2 (Pb) (Fc fusion)
chain: SHLVKCGEKHKSFCVNGGECFMIEGPSNPSRYLCKCPNEFTGDRCQEDFMASFGGGGAGGGGAGGGG[letters of human IgG1 Fc with R292C N297G V302C (EU numbers) not shown]
B8: huNRG1(S177-F229)(NRGE1C) (E47S_D48T_F49R_M50V) huIgG1z SELF2 Fc (Fc fusion)
chain: B7 chain with E47S, D48T, F49R, M50V, A58E
B9: huNRG1(S177-F229)(NRGE1C)((G4E)2)::G4::huFcSEFL2 (Pb) (Fc fusion)
chain: B7 chain with A58E, A63E
B10: huNRG1(S177-F229)(NRGE1D)((G4E)2)::G4::huFcSEFL2 (Pb) (Fc fusion)
chain: B7 chain with K9S, F21Y, I23V, P26S, N28I, A58E, A63E
B11: huNRG1(S177-F229)(NRGE1D) (E47S_D48S_F49E_M50L) huIgG1z SELF2 Fc (Fc fusion)
chain: B7 chain with K9S, F21Y, I23V, P26S, N28I, E47S, D48S, F49E, M50L, A58E
B12: huNRG1(S177-F229)(NRGE1C) huIgG1z SELF2 Fc (Fc fusion)
chain: B7 chain with A58E
B13: huNRG1(S177-F229)(NRGE1D)::(G4S)2::G4::huFcSEFL2 (Pb) (Fc fusion)
chain: B7 chain with K9S, F21Y, I23V, P26S, N28I, A58S, A63S
B14: huNRG1(S177-F229)(NRGE1D) (E47K_D48L_F49D_M50I) huIgG1z SELF2 Fc (Fc fusion)
chain: B7 chain with K9S, F21Y, I23V, P26S, N28I, E47K, D48L, F49D, M50I, A58E
B15: huNRG1(S177-F229)(NRGE1C)(G4E)::G4S::G4::huFcSEFL2 (Pb) (Fc fusion)
chain: B7 chain with A58E, A63S
B16: huNRG1(S177-F229)(NRGE1D) (E47T_D48S_F49L_M50L) huIgG1z SELF2 Fc (Fc fusion)
chain: B7 chain with K9S, F21Y, I23V, P26S, N28I, E47T, D48S, F49L, M50L, A58E
B17: huNRG1(S177-F229)(NRGE1C) (E47S_D48A_F49L_M50T) huIgG1z SELF2 Fc (Fc fusion)
chain: B7 chain with E47S, D48A, F49L, M50T, A58E
B18: huNRG1(S177-F229)(NRGE1C) (E47Q_D48S_M50P) huIgG1z SELF2 Fc (Fc fusion)
chain: B7 chain with E47Q, D48S, M50P, A58E
B19: huNRG1(S177-F229)(NRGE1D)::(G4A)2:G4::huFcSEFL2 (Pb) (Fc fusion)
chain: B7 chain with K9S, F21Y, I23V, P26S, N28I
B20: huNRG1(S177-F229)(NRGE1C) (E47A_D48P_F49H_M50I) huIgG1z SELF2 Fc (Fc fusion)
chain: B7 chain with E47A, D48P, F49H, M50I, A58E
B21: huNRG1(S177-F229)(NRGE1C) (E47K_D48T_F49S_M50L) huIgG1z SELF2 Fc (Fc fusion)
chain: B7 chain with E47K, D48T, F49S, M50L, A58E
B22: huNRG1(S177-F229)(NRGE1D) huIgG1z SELF2 Fc (Fc fusion)
chain: B7 chain with K9S, F21Y, I23V, P26S, N28I, A58E
B23: huNRG1(S177-F229)(NRGE1D)(G4E)::G4S::G4::huFcSEFL2 (Pb) (Fc fusion)
chain: B7 chain with K9S, F21Y, I23V, P26S, N28I, A58E, A63S
B24: huNRG1(S177-F229)(NRGE1C)::(G4S)2::G4::huFcSEFL2 (Pb) (Fc fusion)
chain: B7 chain with A58S, A63S
B25: huNRG1(S177-F229)(NRGE1C)::3x(G4Q)::huFcSEFL2 (Pb) (Fc fusion)
chain: SHLVKCGEKHKSFCVNGGECFMIEGPSNPSRYLCKCPNEFTGDRCQEDFMASFGGGGQGGGGQGGGGQ[letters of human IgG1 Fc with changes not shown]
B26: huNRG1(S177-F229)(3H8)::3x(G4Q)::huFcSEFL2 (Pb) (Fc fusion)
chain: SHLVKCGEKHKSFCVNGGECYMVEGSSIPSRYLCKCPNEFTGDRCQEDFMASFGGGGQGGGGQGGGGQ[letters of human IgG1 Fc with changes not shown]
B27: huNRG1(S177-F229)(NRGE1D)::3x(G4Q)::huFcSEFL2 (Pb) (Fc fusion)
chain: SHLVKCGESHKSFCVNGGECYMVEGSSIPSRYLCKCPNEFTGDRCQEDFMASFGGGGQGGGGQGGGGQ[letters of human IgG1 Fc with changes not shown]
B28: huNRG1(S177-Q237)(3H8)::3xG4S::huFcSEFL2 (Pb) (Fc fusion)
chain: SHLVKCGEKHKSFCVNGGECYMVEGSSIPSRYLCKCPNEFTGDRCQEDFMASFYKAEELYQGGGGSGGGGSGGGGS[letters of human IgG1 Fc with R292C N297G V302C (EU numbers) not shown]
B29: :huFcSEFL2(desK):G4SG4:huNRG1(S177-Q237)(NRGE1C) (Fc fusion)
chain: [letters of human IgG1 Fc with R292C N297G V302C (EU numbers) not shown]GGGGSGGGGSHLVKCGEKHKSFCVNGGECFMIEGPSNPSRYLCKCPNEFTGDRCQEDFMASFYKAEELYQ[letters of human IgG1 Fc with R292C N297G V302C (EU numbers) not shown]GGGGSGGGGSHLVKCGEKHKSFCVNGGECFMIEGPSNPSRYLCKCPNEFTGDRCQEDFMASFYKAEELYQ
B30: :huFcSEFL2(desK):G4SG4:huNRG1(S177-Q237)(NRGE1D) (Fc fusion)
chain: [letters of human IgG1 Fc with R292C N297G V302C (EU numbers) not shown]GGGGSGGGGSHLVKCGESHKSFCVNGGECYMVEGSSIPSRYLCKCPNEFTGDRCQEDFMASFYKAEELYQ[letters of human IgG1 Fc with R292C N297G V302C (EU numbers) not shown]GGGGSGGGGSHLVKCGESHKSFCVNGGECYMVEGSSIPSRYLCKCPNEFTGDRCQEDFMASFYKAEELYQ
B31: :huFcSEFL2(desK):G4SG4:huNRG1(S177-F229)(NRGE1C) (Fc fusion)
chain: [letters of human IgG1 Fc with R292C N297G V302C (EU numbers) not shown]GGGGSGGGGSHLVKCGEKHKSFCVNGGECFMIEGPSNPSRYLCKCPNEFTGDRCQEDFMASF[letters of human IgG1 Fc with R292C N297G V302C (EU numbers) not shown]GGGGSGGGGSHLVKCGEKHKSFCVNGGECFMIEGPSNPSRYLCKCPNEFTGDRCQEDFMASF
B32: :huFcSEFL2(desK):G4SG4:huNRG1(S177-F229)(NRGE1D) (Fc fusion)
chain: [letters of human IgG1 Fc with R292C N297G V302C (EU numbers) not shown]GGGGSGGGGSHLVKCGESHKSFCVNGGECYMVEGSSIPSRYLCKCPNEFTGDRCQEDFMASF[letters of human IgG1 Fc with R292C N297G V302C (EU numbers) not shown]GGGGSGGGGSHLVKCGESHKSFCVNGGECYMVEGSSIPSRYLCKCPNEFTGDRCQEDFMASF

molecular target: ErbB3 on rat Schwann cells (rat) (UniProt Q62799); assay: cell-based or functional assay
UniProt Q62799, sequence (Q62799 20-1339): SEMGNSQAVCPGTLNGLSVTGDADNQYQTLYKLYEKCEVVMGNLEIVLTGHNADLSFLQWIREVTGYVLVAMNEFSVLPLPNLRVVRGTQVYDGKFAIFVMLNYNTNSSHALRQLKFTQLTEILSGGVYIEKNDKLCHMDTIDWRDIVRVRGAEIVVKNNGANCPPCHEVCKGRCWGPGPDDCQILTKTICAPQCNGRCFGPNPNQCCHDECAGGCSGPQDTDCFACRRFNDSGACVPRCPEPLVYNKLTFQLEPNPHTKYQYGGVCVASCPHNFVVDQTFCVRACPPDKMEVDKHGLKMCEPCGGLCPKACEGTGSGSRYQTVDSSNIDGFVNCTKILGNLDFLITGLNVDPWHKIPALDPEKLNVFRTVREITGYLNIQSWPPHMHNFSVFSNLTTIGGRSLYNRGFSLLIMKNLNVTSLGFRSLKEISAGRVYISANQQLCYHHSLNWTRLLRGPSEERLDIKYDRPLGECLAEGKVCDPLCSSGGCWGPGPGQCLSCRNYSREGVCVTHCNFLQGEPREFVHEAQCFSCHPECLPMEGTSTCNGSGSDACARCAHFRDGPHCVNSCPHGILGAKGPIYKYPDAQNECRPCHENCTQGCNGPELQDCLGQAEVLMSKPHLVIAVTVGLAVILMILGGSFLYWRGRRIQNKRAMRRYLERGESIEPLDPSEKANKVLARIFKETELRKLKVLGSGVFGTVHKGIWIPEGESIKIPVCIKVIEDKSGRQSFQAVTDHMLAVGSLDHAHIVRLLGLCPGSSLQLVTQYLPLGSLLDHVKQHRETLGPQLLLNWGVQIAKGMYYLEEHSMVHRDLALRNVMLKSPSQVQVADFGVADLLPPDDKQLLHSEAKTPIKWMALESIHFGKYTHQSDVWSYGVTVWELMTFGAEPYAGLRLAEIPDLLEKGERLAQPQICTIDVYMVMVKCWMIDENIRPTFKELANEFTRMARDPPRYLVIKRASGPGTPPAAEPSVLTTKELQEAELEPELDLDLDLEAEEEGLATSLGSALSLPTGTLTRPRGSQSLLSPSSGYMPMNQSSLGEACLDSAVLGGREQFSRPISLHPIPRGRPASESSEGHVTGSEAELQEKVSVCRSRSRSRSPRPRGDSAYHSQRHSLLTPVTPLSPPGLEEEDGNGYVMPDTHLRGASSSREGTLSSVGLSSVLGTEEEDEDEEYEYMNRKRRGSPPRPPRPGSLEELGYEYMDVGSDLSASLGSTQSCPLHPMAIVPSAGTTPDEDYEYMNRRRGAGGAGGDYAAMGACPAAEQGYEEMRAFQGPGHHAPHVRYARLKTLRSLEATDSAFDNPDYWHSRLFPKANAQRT

| Schwann cells (SC) (ErbB3) Avg EC50 | Binder |
| --- | --- |
| > 10000 nM | B1 |
| > 10000 nM | B2 |
| 27.7 nM | B3 |
| > 10000 nM | B4 |
| 100 nM | B5 |
| > 10000 nM | B6 |
| > 10000 nM | B7 |
| 10000 nM | B8 |
| > 10000 nM | B9 |
| > 10000 nM | B10 |
| 10000 nM | B11 |
| 10000 nM | B12 |
| > 10000 nM | B13 |
| 9.33 nM | B14 |
| > 10000 nM | B15 |
| 10000 nM | B16 |
| 10000 nM | B17 |
| 10000 nM | B18 |
| > 10000 nM | B19 |
| 10000 nM | B20 |
| 10000 nM | B21 |
| 10000 nM | B22 |
| > 10000 nM | B23 |
| > 10000 nM | B24 |
| > 10000 nM | B25 |
| 149 nM | B26 |
| 410 nM and 446 nM | B27 |
| > 10000 nM | B28 |

molecular target: ErbB4 on neonatal rat cardiomyocytes (rat) (UniProt Q62956); assay: cell-based or functional assay
UniProt Q62956, sequence (Q62956 26-1308): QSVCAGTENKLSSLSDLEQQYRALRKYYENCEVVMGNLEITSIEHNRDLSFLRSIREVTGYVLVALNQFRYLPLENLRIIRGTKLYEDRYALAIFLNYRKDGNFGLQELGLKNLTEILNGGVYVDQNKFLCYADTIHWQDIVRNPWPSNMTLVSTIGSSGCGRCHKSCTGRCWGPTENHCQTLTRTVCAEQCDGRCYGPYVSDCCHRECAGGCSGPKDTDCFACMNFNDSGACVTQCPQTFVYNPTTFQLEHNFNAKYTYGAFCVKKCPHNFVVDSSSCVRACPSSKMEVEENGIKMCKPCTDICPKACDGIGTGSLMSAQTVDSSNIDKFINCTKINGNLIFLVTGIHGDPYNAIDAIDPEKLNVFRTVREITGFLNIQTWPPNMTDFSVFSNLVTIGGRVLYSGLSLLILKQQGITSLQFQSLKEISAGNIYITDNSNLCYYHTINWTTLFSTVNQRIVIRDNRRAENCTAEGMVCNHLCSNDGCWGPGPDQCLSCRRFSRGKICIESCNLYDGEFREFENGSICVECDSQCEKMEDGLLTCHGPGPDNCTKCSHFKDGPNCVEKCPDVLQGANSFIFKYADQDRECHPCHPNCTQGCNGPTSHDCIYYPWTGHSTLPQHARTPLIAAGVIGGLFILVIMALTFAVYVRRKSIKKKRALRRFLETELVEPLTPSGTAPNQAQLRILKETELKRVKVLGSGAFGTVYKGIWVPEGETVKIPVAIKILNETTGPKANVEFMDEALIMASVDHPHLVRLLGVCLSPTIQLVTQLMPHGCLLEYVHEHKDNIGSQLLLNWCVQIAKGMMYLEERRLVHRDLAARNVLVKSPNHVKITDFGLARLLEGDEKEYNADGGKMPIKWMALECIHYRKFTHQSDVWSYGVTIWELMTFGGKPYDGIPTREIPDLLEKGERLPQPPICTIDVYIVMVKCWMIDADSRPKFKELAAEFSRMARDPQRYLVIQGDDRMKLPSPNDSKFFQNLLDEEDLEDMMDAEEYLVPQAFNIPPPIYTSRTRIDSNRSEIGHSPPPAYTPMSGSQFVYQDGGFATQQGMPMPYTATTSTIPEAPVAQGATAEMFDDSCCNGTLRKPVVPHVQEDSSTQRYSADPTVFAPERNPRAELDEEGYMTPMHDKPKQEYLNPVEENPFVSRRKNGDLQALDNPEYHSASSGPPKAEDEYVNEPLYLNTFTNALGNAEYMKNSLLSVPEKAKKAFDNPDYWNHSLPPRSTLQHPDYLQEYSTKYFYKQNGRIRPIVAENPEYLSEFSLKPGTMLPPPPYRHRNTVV

| CM % Agonism AVG | Cardiomyocyte (CM) (ErbB4) Avg EC50 | Selectivity SC/CM | Binder |
| --- | --- | --- | --- |
| 75.5% | 0.87 nM | > 10000 | B1 |
| 74.9% | 0.54 nM | > 10000 | B2 |
| 84.9% | 0.11 nM | > 10000 | B29 |
| 90.5% | 0.1 nM | > 10000 | B30 |
| 82.7% | 0.49 nM | > 10000 | B7 |
| 76% | 0.19 nM | > 10000 | B8 |
| 81.9% and 88.7% | – | > 10000 | B9 |
| 88.2% and 84.6% | – | > 10000 | B10 |
| 86.3% | 0.37 nM | > 10000 | B11 |
| 77.2% | 0.28 nM | > 10000 | B12 |
| 80.5% | 0.46 nM | > 10000 | B13 |
| 88.5% | 0.15 nM | 62.2 | B14 |
| 82.2% | 0.42 nM | > 10000 | B15 |
| 79.5% | 0.39 nM | > 10000 | B16 |
| 87.8% | 0.48 nM | > 10000 | B17 |
| 83.2% | 0.3 nM | > 10000 | B18 |
| 78.8% | 0.32 nM | > 10000 | B19 |
| 85.8% | 0.23 nM | > 10000 | B20 |
| 92.9% | 0.25 nM | > 10000 | B21 |
| 82.2% | 0.48 nM | > 10000 | B22 |
| 85% | 0.35 nM | > 10000 | B23 |
| 79.4% | 0.62 nM | > 10000 | B24 |
| 71.8% | 0.29 nM | > 10000 | B31 |
| 76.2% | 0.23 nM | > 10000 | B32 |
| – | 0.2 nM | > 10000 | B28 |
